Test results reported in PMC5484543.
No constants are given. Whether binding was seen depends on the method and setting. In cells and extracts the contact can be indirect. Some entries that bind do so weakly or less than the wild type. Tags and fused reporters may be left off the sequences shown.

Protein sequences, listed by entry. Tags and fused reporters are not part of them.
UniProt P11142: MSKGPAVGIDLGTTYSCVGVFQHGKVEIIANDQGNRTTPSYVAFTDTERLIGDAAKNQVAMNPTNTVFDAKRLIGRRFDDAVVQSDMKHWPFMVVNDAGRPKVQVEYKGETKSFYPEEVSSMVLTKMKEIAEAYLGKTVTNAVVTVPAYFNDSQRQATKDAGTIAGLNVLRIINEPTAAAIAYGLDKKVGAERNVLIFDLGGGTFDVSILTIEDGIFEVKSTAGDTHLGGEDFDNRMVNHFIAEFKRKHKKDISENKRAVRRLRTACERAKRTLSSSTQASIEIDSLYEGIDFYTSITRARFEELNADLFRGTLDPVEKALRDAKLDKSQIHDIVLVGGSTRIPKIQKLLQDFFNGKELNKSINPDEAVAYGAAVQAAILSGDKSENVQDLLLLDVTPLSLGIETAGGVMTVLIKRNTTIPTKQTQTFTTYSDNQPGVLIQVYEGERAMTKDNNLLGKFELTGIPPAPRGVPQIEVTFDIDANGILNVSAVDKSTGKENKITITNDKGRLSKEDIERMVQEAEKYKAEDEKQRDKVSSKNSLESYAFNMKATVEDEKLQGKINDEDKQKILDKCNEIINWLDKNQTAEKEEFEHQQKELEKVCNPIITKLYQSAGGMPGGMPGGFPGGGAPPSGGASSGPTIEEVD

T1: 3xFLAG-B12 (UniProt Q9NXW2)
T1 sequence: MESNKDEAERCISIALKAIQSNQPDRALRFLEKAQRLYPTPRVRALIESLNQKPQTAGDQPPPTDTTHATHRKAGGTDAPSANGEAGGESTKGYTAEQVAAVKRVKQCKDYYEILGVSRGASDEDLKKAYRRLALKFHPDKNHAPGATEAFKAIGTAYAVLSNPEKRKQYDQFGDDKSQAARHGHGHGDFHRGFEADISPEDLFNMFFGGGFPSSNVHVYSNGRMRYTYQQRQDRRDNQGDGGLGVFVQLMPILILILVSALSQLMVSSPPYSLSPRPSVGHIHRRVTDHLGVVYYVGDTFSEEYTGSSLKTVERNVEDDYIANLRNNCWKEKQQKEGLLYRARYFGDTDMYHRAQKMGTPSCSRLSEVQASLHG

T2: 3xFLAG-B14 (UniProt Q8TBM8)
T2 sequence: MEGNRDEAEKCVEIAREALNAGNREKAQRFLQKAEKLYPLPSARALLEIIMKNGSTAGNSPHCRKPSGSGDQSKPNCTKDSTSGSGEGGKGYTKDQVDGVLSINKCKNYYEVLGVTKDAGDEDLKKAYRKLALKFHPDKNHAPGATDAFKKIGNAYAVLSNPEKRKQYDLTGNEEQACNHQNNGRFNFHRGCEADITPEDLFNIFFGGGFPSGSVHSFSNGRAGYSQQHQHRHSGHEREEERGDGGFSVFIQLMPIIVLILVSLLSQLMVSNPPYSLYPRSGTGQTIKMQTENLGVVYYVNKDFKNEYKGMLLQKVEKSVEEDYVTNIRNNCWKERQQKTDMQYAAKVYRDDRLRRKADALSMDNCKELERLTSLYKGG

T3: FLAG-B12 [1–355] (UniProt Q9NXW2)
T3 sequence: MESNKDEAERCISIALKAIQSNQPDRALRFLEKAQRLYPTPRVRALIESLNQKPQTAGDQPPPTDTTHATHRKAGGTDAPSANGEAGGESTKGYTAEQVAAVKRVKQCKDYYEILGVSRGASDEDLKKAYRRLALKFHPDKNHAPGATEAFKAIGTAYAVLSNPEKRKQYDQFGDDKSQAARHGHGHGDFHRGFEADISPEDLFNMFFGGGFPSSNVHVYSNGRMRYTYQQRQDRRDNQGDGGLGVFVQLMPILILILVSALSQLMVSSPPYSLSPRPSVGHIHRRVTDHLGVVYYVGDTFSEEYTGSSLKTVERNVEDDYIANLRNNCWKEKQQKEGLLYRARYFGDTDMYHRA

T4: FLAG-B12 [H138Q] (UniProt Q9NXW2)
T4 sequence: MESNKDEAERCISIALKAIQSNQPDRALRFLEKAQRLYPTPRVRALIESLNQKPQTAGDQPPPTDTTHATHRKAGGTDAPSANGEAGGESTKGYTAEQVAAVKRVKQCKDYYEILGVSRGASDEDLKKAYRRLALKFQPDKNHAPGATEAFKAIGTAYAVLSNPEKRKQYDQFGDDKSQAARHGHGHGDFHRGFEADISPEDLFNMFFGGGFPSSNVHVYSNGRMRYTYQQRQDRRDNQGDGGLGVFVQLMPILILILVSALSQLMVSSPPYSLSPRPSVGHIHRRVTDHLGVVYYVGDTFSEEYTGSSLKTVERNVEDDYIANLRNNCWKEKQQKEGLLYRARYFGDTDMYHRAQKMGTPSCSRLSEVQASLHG

T5: FLAG-B12 [WT] (UniProt Q9NXW2)
T5 sequence: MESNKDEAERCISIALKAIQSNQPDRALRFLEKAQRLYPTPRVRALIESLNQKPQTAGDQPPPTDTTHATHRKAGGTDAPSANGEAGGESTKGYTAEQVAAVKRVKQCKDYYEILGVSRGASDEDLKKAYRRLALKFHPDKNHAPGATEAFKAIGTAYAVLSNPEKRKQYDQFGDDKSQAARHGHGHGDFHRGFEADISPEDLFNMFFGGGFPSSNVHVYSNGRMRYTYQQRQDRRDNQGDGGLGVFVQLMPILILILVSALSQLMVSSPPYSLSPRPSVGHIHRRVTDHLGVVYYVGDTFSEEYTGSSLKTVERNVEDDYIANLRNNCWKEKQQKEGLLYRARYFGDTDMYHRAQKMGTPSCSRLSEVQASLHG


How the values were obtained:
[1] = biological target: T1, 3xFLAG-B12; experiment: co-IP; extracts of cells stably expressing 3xFLAG-B12 or 3xFLAG-B14 and parental cells; FLAG antibody-conjugated agarose beads; eluted with SDS sample buffer; immunoblot for endogenous proteins
[2] = biological target: T2, 3xFLAG-B14; experiment: as above
[3] = biological target: T3, FLAG-B12 [1–355]; experiment: co-IP; HEK 293T transfected with FLAG-tagged constructs; lysis in 50 mM Hepes pH 7.5, 150 mM NaCl, 1% Triton X-100; FLAG antibody-conjugated agarose beads, 4°C, 2 h; immunoblot for endogenous Erlin1 and Erlin2
[4] = biological target: T4, FLAG-B12 [H138Q]; experiment: as above
[5] = biological target: T5, FLAG-B12 [WT]; experiment: as above

Row | binding [1] | binding [2] | binding [3] | binding [4] | binding [5] | Molecule
1 | binds | binds |  |  |  | Hsc70 (from UniProt P11142 1-646)
2 | binds | no binding | no binding | binds | binds | Erlin2 (endogenous) (protein, UniProt O94905 1-339) MAQLGAVVAVASSFFCASLFSAVHKIEEGHIGVYYRGGALLTSTSGPGFHLMLPFITSYKSVQTTLQTDEVKNVPCGTSGGVMIYFDRIEVVNFLVPNAVYDIVKNYTADYDKALIFNKIHHELNQFCSVHTLQEVYIELFDQIDENLKLALQQDLTSMAPGLVIQAVRVTKPNIPEAIRRNYELMESEKTKLLIAAQKQKVVEKEAETERKKALIEAEKVAQVAEITYGQKVMEKETEKKISEIEDAAFLAREKAKADAECYTAMKIAEANKLKLTPEYLQLMKYKAIASNSKIYFGKDIPNMFMDSAGSVSKQFEGLADKLSFGLEDEPLETATKEN
3 | binds | no binding | no binding | binds | binds | Erlin1 (endogenous) (protein, UniProt O75477 1-348) MNMTQARVLVAAVVGLVAVLLYASIHKIEEGHLAVYYRGGALLTSPSGPGYHIMLPFITTFRSVQTTLQTDEVKNVPCGTSGGVMIYIDRIEVVNMLAPYAVFDIVRNYTADYDKTLIFNKIHHELNQFCSAHTLQEVYIELFDQIDENLKQALQKDLNLMAPGLTIQAVRVTKPKIPEAIRRNFELMEAEKTKLLIAAQKQKVVEKEAETERKKAVIEAEKIAQVAKIRFQQKVMEKETEKRISEIEDAAFLAREKAKADAEYYAAHKYATSNKHKLTPEYLELKKYQAIASNSKIYFGSNIPNMFVDSSCALKYSDIRTGRESSLPSKEALEPSGENVIQNKESTG
